Six molecules from US20240325499A1, “FGF21 COMPOUND / GLP-1R AGONIST COMBINATIONS WITH OPTIMIZED ACTIVITY RATIO” (SANOFI, priority 2018, published 2024) can be followed below.

The EC50 is the concentration that produces a half-maximal response. A high value points to a less potent agent.

The target of this experiment is T1, human GLP-1 receptor (Homo sapiens, UniProt P43220).
T1 construct: expressed in transfected cells; host or cells: HEK-293 cell line
Nature of the experiment: cAMP response (HTRF) in HEK-293 cell line stably expressing human GLP-1 receptor. The experiment is classed as cell-based. The note with it: for EC50: cAMP response, HEK-293 cells stably expressing human GLP-1 receptor; for Ratio GLP-1R agonistic activity: native GLP-1(7-36)/tested GLP-1R agonist: ratio X = activity X-fold reduced versus native GLP-1(7-36), HEK-293, cAMP. As for the experimental part:
The cAMP content of cells was determined using a kit from Cisbio Corp. (cat. no. 62AM4PEC) based on HTRF (Homogenous Time Resolved Fluorescence). For preparation, cells were split into T175 culture flasks and grown overnight to near confluence in medium (DMEM/10% FBS). Medium was then removed and cells washed with PBS lacking calcium and magnesium, followed by proteinase treatment with accutase (Sigma-Aldrich cat. no. A6964). Detached cells were washed and resuspended in assay buffer (1x HBSS; 20 mM HEPES, 0.1% BSA, 2 mM IBMX) and cellular density determined. They were then diluted to 4×10^5 cells/mL and 25 μL-aliquots dispensed into the wells of 96-well plates. For measurement, 25 μL of test compound in assay buffer was added to the wells, followed by incubation for 30 minutes at room temperature. After addition of HTRF reagents diluted in lysis buffer (kit components), the plates were incubated for 1 h, followed by measurement of the fluorescence ratio at 665/620 nm.
(In general: Time-resolved FRET reads energy transfer from a long-lived donor to a nearby acceptor.)

T1 sequence (P43220 24-463): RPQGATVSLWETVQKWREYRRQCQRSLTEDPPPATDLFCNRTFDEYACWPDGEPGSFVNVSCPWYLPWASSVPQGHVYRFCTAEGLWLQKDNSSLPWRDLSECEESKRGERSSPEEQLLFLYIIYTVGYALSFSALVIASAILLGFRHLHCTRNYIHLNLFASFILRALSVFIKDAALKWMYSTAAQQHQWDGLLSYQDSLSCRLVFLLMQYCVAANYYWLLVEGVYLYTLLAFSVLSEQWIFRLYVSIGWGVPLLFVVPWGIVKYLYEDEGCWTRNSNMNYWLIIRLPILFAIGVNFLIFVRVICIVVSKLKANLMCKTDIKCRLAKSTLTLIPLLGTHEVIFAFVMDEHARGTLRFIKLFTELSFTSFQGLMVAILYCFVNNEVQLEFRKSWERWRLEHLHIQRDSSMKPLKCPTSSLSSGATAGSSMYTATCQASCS

B1: 36 (protein)
chain: GHGEGTFTSDLSIQLEEEAVRLFIEWLLAGGPKKQRLSGGGGGGGSGGGGSGGGGSA[sequence of human IgG4 Fc with changes not given]GGGSGSAHPIPDSSPLLQFGGQVRQRYLYTDDACQTEAHLEIREDGTVGGAADQSPESLLQLKALKPGVIQILGVKTSRFLCQRPDGALYGSLHFDPEACSFRELLLEDGYNVYQSEAHGLPLHLPGCKSPHRDPAPRGPARFLPLPGLPPAPPEPPGILAPQPPDVGSSDPLSMVGSQGRSPSYAS
modifications: GLP1(7-36) insG,A8G,V16L,S18I,Y19Q,G22E,Q23E,A25V,K26R,E27L,A30E,V33L,K34A,R 36G,insPKKQRLS_[19GS]_IgG4 Fc_variant [7GS]_FGF21(His29-Ser209)Q55C,N149C,delP199
Turning to B1, the midpoint of the response, the EC50, lay at 14.6 pM and the “Ratio GLP-1R agonistic activity: native GLP-1(7-36)/tested GLP-1R agonist” value (shortened to “Ratio GLP-1R agonistic activity”) was found to be 18.9.

B2: 26 (protein)
chain: HGEGTFTSDLSIQLDEEAVRLFIEWLLATGPVSGAPPPSGGGGGGGSGGGGSGGGGSA[sequence of human IgG4 Fc with changes not given]GGGSGSAHPIPDSSPLLQFGGQVRQRYLYTDDACQTEAHLEIREDGTVGGAADQSPESLLQLKALKPGVIQILGVKTSRFLCQRPDGALYGSLHFDPEACSFRELLLEDGYNVYQSEAHGLPLHLCGNKSPHRDPAPRGPARFLPLPGLPPAPPEPPGILAPQPPDVGSSDPLSMVGSQGRSPSYAS
modifications: GLP1(7-36) A8G,V16L,S18I,Y19Q,E21D,G22E,Q23E,A25V,K26R,E27L,A30E,V33L,K34A,G 35T,R36G,insPVSGAPPPS_[19GS]_IgG4 Fc_variant [7GS]_FGF21(His29-Ser209)Q55C,P147C,delP199
With B2, it took 60.5 pM to reach a half-maximal effect (EC50) and the “Ratio GLP-1R agonistic activity” value turned out to be 78.6.

B3: 27 (protein)
chain: HGEGTFTSDLSIQLDEEAVRLFIEWLEATGPVSGAPPPSGGGGGGGSGGGGSGGGGSA[sequence of human IgG4 Fc with changes not given]GGGSGSAHPIPDSSPLLQFGGQVRQRYLYTDDACQTEAHLEIREDGTVGGAADQSPESLLQLKALKPGVIQILGVKTSRFLCQRPDGALYGSLHFDPEACSFRELLLEDGYNVYQSEAHGLPLHLPGCKSPHRDPAPRGPARFLPLPGLPPAPPEPPGILAPQPPDVGSSDPLSMVGSQGRSPSYAS
modifications: GLP1(7-36) A8G,V16L,S18I,Y19Q,E21D,G22E,Q23E,A25V,K26R,E27L,A30E,V33E,K34A,G 35T,R36G,insPVSGAPPPS_[19GS]_IgG4 Fc_variant [7GS]_FGF21(His29-Ser209)Q55C,N149C,delP199
Regarding B3, a half-maximal effect (EC50) was put at 675 pM and the “Ratio GLP-1R agonistic activity” value worked out at 877.1.

B4: 32 (protein)
chain: HGEGTFTSDLSKQLEEEAVQLFIEWLLATGGGGGGGGSGGGGSGGGGSA[sequence of human IgG4 Fc with changes not given]GGGSGSAHPIPDSSPLLQFGGQVRQRYLYTDDACQTEAHLEIREDGTVGGAADQSPESLLQLKALKPGVIQILGVKTSRFLCQRPDGALYGSLHFDPEACSFRELLLEDGYNVYQSEAHGLPLHLPGCKSPHRDPAPRGPARFLPLPGLPPAPPEPPGILAPQPPDVGSSDPLSMVYPSQGRSPSYAS
modifications: GLP1(7-36) A8G,V16L,S18K,Y19Q,G22E,Q23E,A25V,K26Q,E27L,A30E,V33L,K34A,G35T,R 36G_[19GS]_IgG4 Fc_variant [7GS] FGF21(His29-Ser209)Q55C,N149C,G198Y
Take B4: the EC50 is 63 pM and the “Ratio GLP-1R agonistic activity” value was 81.9.

B5: 33 (protein)
chain: HGEGTFTSDLSKQLEEEAVQLFIEWLLATGPSSGEPPPEGGGGGGGSGGGGSGGGGSA[sequence of human IgG4 Fc with changes not given]GGGSGSAHPIPDSSPLLQFGGQVRQRYLYTDDACQTEAHLEIREDGTVGGAADQSPESLLQLKALKPGVIQILGVKTSRFLCQRPDGALYGSLHFDPEACSFRELLLEDGYNVYQSEAHGLPLHLPGCKSPHRDPAPRGPARFLPLPGLPPAPPEPPGILAPQPPDVGSSDPLSMVYPSQGRSPSYAS
modifications: GLP1(7-36) A8G,V16L,S18K,Y19Q,G22E,Q23E,A25V,K26Q,E27L,A30E,V33L,K34A,G35T,R 36G,insPSSGEPPPE_[19GS]_IgG4 Fc_variant [7GS]_FGF21(His29-Ser209)Q55C,N149C,G198Y
For the molecule B5, the midpoint of the response, the EC50, lay at 126 pM and the “Ratio GLP-1R agonistic activity” value worked out at 163.6.

B6: 30 (protein)
chain: HGEGTFTSDLSKQLEEEAVQLFIEWLLATGPSSGEPPPESGGGGGGGSGGGGSGGGGSA[sequence of human IgG4 Fc with changes not given]GGGSGSAHPIPDSSPLLQFGGQVRQRYLYTDDACQTEAHLEIREDGTVGGAADQSPESLLQLKALKPGVIQILGVKTSRFLCQRPDGALYGSLHFDPEACSFRELLLEDGYNVYQSEAHGLPLHLPGCKSPHRDPAPRGPARFLPLPGLPPAPPEPPGILAPQPPDVGSSDPLSMVYPSQGRSPSYAS
modifications: GLP1(7-36) A8G,V16L,S18K,Y19Q,E21D,G22E,Q23E,A25V,K26Q,E27L,A30E,V33L,K34A,G 35T,R36G,insPSSGEPPPES_[19GS]_IgG4 Fc_variant [7GS]_FGF21(His29-Ser209)Q55C,N149C,G198Y
Take B6: the EC50 came out at 173 pM and the “Ratio GLP-1R agonistic activity” value was 224.6.
